{
  "source": "the supplement of paper PMC11417369",
  "note": "This is one part of the list.",
  "data": [
    {"tested_on": "PfAP2-HC AP2 domain (GST-tagged)", "experiment": "gcPBM binding intensity (ln(normalized median fluorescence intensity)); higher = stronger DNA binding", "method_in_brief": "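An Agilent 4 × 180k array of primer-extended double-stranded 36-bp intergenic genomic probes, with negative controls, was incubated for 1 h with GST-tagged P. falciparum DNA-binding domains expressed in E. coli. Alexa488 anti-GST antibody detected bound protein, scanned at 488 nm. Binding intensity is the highest Masliner-normalised natural-log median intensity across replicate spots of either probe orientation.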", "values": [
      {"sequence": "ATTATATTTCAATTATGTACATATAAAATGAATAAA [XGTACX_site4204]", "gcPBM binding intensity (ln)": 9.51},
      {"sequence": "AATTTTCATTTTAGAAGTACACACAAAAAATAAAAT [XGTACX_site4426]", "gcPBM binding intensity (ln)": 9.64},
      {"sequence": "AAATAAAATACAATATGATAAAATGTTATCATATAT [CACACA_negctrl_site538]", "gcPBM binding intensity (ln)": 9.79},
      {"sequence": "ATAAATAATATAAATACACACTAAAAAAGATATATA [CACACA_site6397]", "gcPBM binding intensity (ln)": 9.84},
      {"sequence": "AATAAAAGGAATAATTGTACATAATGATTATACGTT [XGTACX_site7548]", "gcPBM binding intensity (ln)": 9.8},
      {"sequence": "TTTTGTAAAATTAATTTATTATACATATATATTTCT [GTGCAC_negctrl_site728]", "gcPBM binding intensity (ln)": 9.63},
      {"sequence": "TAATGTACTTAAACCGCACACATATAAAAAAATAAA [CACACA_site8926]", "gcPBM binding intensity (ln)": 9.8},
      {"sequence": "TTATTTTAATTTTTGGTGCATATTCAAGTGTACCTT [GTGCAC_site9791]", "gcPBM binding intensity (ln)": 9.56},
      {"sequence": "TATTTACATATTTATATACACACTTTTGCGTGTCTG [CACACA_site1110]", "gcPBM binding intensity (ln)": 10.2},
      {"sequence": "AATACTCCATTGTATAGTACATATATTTTTATTTAT [XGTACX_site3641]", "gcPBM binding intensity (ln)": 9.76},
      {"sequence": "AATAAAAAAAAAAATAATATATATGTATAAATATAT [CACACA_negctrl_site1561]", "gcPBM binding intensity (ln)": 9.58},
      {"sequence": "TATTTTTATTTATATACACACTTACATATTTATATT [CACACA_site7666]", "gcPBM binding intensity (ln)": 10},
      {"sequence": "AGAATTTATAAAAACTGTACATATTTTCCAGTTATA [XGTACX_site2848]", "gcPBM binding intensity (ln)": 9.57},
      {"sequence": "GTTGTAAAAAGAAAATGTACGTAATAAATATATATA [XGTACX_site3081]", "gcPBM binding intensity (ln)": 9.77},
      {"sequence": "TTTATCCTTCTTTTGAGTACTCAAAGAGACCTATAA [XGTACX_site8050]", "gcPBM binding intensity (ln)": 9.48},
      {"sequence": "AAAAAAAACAGACACACACACAAATATTTATATATC [CACACA_site6342]", "gcPBM binding intensity (ln)": 10.5},
      {"sequence": "ATTATAAATATAAATATAAATATATATTGTTCCGCA [TGCATGCA_negctrl_site470]", "gcPBM binding intensity (ln)": 9.56},
      {"sequence": "TATATATATATATATATATATATTTTTATTATATAT [XGTACX_negctrl_site89]", "gcPBM binding intensity (ln)": 9.89},
      {"sequence": "TTGCACTCGTAAAAAGCACACATATAAAAACATTTA [CACACA_site7997]", "gcPBM binding intensity (ln)": 9.58},
      {"sequence": "TTAAAAATGTTATAATGTACATATAATATTTTATGA [XGTACX_site5954]", "gcPBM binding intensity (ln)": 9.49},
      {"sequence": "AAAACACATACTATATGTACATATAATAATTTATAT [XGTACX_site4525]", "gcPBM binding intensity (ln)": 9.79},
      {"sequence": "AAGAAAAAAAAAAAAAAAAAAAAAAAAAAAAAAAAA [TGCATGCA_negctrl_site263]", "gcPBM binding intensity (ln)": 9.13},
      {"sequence": "TTCTGTATATAGTGTGCACACAATTAAAAAAAAAAA [CACACA_site8400]", "gcPBM binding intensity (ln)": 10},
      {"sequence": "ATTATAAATAAAATATGTACATATGTATAAATACAT [XGTACX_site4002]", "gcPBM binding intensity (ln)": 9.76},
      {"sequence": "AAATATATTTTTTTTTGTACTCAAAAAGAAAAAAAA [XGTACX_site8540]", "gcPBM binding intensity (ln)": 9.05},
      {"sequence": "ATAAAATTATATACTCGTACACAAAAAAAAAAAATA [XGTACX_site6035]", "gcPBM binding intensity (ln)": 9.73},
      {"sequence": "AAAAATTGAATGATGTGTACTTAAAAGAATATAGAA [XGTACX_site6588]", "gcPBM binding intensity (ln)": 9.77},
      {"sequence": "TTTACACTTTTTTTTGTACACACTAATAAGATTAAC [CACACA_site9304]", "gcPBM binding intensity (ln)": 9.82},
      {"sequence": "TTTTAATTAAATACAAAAAAAAAAAAAAAAAAAAAA [CACACA_negctrl_site1631]", "gcPBM binding intensity (ln)": 8.63},
      {"sequence": "AAAAAAATTTTTAAAAGTACATTAATATTAATATGT [XGTACX_site5177]", "gcPBM binding intensity (ln)": 9.58},
      {"sequence": "ACATTACAATTATTATAATCAATATATAACCTCTAA [TGCATGCA_negctrl_site105]", "gcPBM binding intensity (ln)": 9.49},
      {"sequence": "ATATATTATATTTAAGTGCATTAATTAAAATGCTTA [GTGCAC_site9403]", "gcPBM binding intensity (ln)": 9.28},
      {"sequence": "AAAAAAAATCAGACAGGTACACATTCCATGTTCAAA [XGTACX_site5380]", "gcPBM binding intensity (ln)": 9.81},
      {"sequence": "CATTAATATATATATAGTACATATACACCTTCATTA [XGTACX_site8473]", "gcPBM binding intensity (ln)": 9.75},
      {"sequence": "AAAATAAATATAAAATGTACTTATATATATATATAT [XGTACX_site7803]", "gcPBM binding intensity (ln)": 9.52},
      {"sequence": "CAATTAAAAAATAATACATGCATATAAATAGATATT [TGCATGCA_site427]", "gcPBM binding intensity (ln)": 9.74},
      {"sequence": "ATAATTAAATAAAAAAGTACACATACATCATAATGC [XGTACX_site7656]", "gcPBM binding intensity (ln)": 9.94},
      {"sequence": "TATGAAGTGCACAATACACACTAATTCTATATAAAT [CACACA_site7269]", "gcPBM binding intensity (ln)": 9.74},
      {"sequence": "TAAGAATACGAAAGGTGTACACTGTGGAGACTTCAA [XGTACX_site2619]", "gcPBM binding intensity (ln)": 9.9},
      {"sequence": "TATATAATAACATATGCATGCAAGTAATATAACCAA [TGCATGCA_site324]", "gcPBM binding intensity (ln)": 9.84},
      {"sequence": "TATAATATATATGTAACACACAAAAGTTATATACTT [CACACA_site2868]", "gcPBM binding intensity (ln)": 9.73},
      {"sequence": "ATATATACATATATATGTACGTATATTTTTATTTCT [XGTACX_site6198]", "gcPBM binding intensity (ln)": 9.89},
      {"sequence": "TATAAACCCACCTACACACACAACGTAAATGCATTG [CACACA_site2238]", "gcPBM binding intensity (ln)": 10.1},
      {"sequence": "ATTTAACAACTTCAAACACACAATATAGATTTATAT [CACACA_site7067]", "gcPBM binding intensity (ln)": 9.79},
      {"sequence": "AACATACACATATACACACACACATATATACATATA [CACACA_site1093]", "gcPBM binding intensity (ln)": 10.4},
      {"sequence": "AAAAAAAAAAAAACATGTACATAAATGTAAAAAAGT [XGTACX_site8158]", "gcPBM binding intensity (ln)": 10.6},
      {"sequence": "ACATATAAAATGTATACACACAAATATTACAGAGAT [CACACA_site4920]", "gcPBM binding intensity (ln)": 10},
      {"sequence": "TATAATAACAATTTAGTGCATATAATAATATTTTAT", "gcPBM binding intensity (ln)": 9.43},
      {"sequence": "GCTTTTGAAAATATACACATGTTAGGAATACAGGGG [TGCATGCA_negctrl_site480]", "gcPBM binding intensity (ln)": 9.64},
      {"sequence": "ATTTTTTTTCTTTTTTTTTTACATTTTTTTCTTTTT [CACACA_negctrl_site1289]", "gcPBM binding intensity (ln)": 9.78},
      {"sequence": "AATTAAGTTAAACATTAAAAAAAACAAAAAATTAAA [CACACA_negctrl_site1333]", "gcPBM binding intensity (ln)": 9.55},
      {"sequence": "GCCATTAATTTATACACACACATTATGATTTTTTAT [CACACA_site754]", "gcPBM binding intensity (ln)": 10.2},
      {"sequence": "ATGCATATGTTTATTGCACACACCAAAAAGAAAACA [CACACA_site403]", "gcPBM binding intensity (ln)": 9.95},
      {"sequence": "TACAAACTATGATGCACACATATATATATGTATACA [CACACA_site1226]", "gcPBM binding intensity (ln)": 9.82},
      {"sequence": "AAAATGTGCCCACGCGTACACACAAAAAAAGAAAAA [CACACA_site2004]", "gcPBM binding intensity (ln)": 10},
      {"sequence": "AATAATTAAAATTATCTACACACCTTTATAAATATA [CACACA_site9300]", "gcPBM binding intensity (ln)": 9.71}
    ]}
  ]
}
